# Some of the results follow.
# B1: FBG1 (Homo sapiens), Q9UK22 (protein)
# chain: MDGDGDPESVGQPEEASPEEQPEEASAEEERPEDQQEEEAAAAAAYLDELPEPLLLRVLAALPAAELVQACRLVCLRWKELVDGAPLWLLKCQQEGLVPEGGVEEERDHWQQFYFLSKRRRNLLRNPCGEEDLEGWCDVEHGGDGWRVEELPGDSGVEFTHDESVKKYFASSFEWCRKAQVIDLQAEGYWEELLDTTQPAIVVKDWYSGRSDAGCLYELTVKLLSEHENVLAEFSSGQVAVPQDSDGGGWMEISHTFTDYGPGVRFVRFEHGGQDSVYWKGWFGARVTNSSVWVEP
# Key:
# Experiment in all cases: glycan array binding signal (z-score within array); higher = stronger binding
# Details in all cases: glycan notation: IUPAC condensed, linker removed
# [1] = biological target: Neu5Ac(a2-3)Gal(b1-4)GlcNAc(b1-3)Gal(b1-4)GlcNAc
# Summary of the method: (§1)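 The binding signal is a Z-score computed within each array. Data were drawn from 3228 arrays in the Consortium for Functional Glycomics database, restricted to those with a known protein sequence. Scores were averaged over arrays of the same protein sequence at different concentrations or buffers, and over linkers, and negative values can be taken as non-binding.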
# [2] = biological target: Neu5Ac(a2-3)Gal(b1-4)GlcNAc(b1-3)Gal(b1-4)GlcNAc(b1-3)Gal(b1-4)GlcNAc
# Summary of the method: as §1
# [3] = biological target: Neu5Ac(a2-3)Gal(b1-4)GlcNAc6S
# Summary of the method: as §1
# [4] = biological target: Neu5Ac(a2-3)Gal(b1-4)[Fuc(a1-3)]GlcNAc
# Summary of the method: as §1
# [5] = biological target: Neu5Ac(a2-3)Gal(b1-4)[Fuc(a1-3)]GlcNAc(b1-3)Gal
# Summary of the method: as §1
# [6] = biological target: Neu5Ac(a2-3)Gal(b1-4)[Fuc(a1-3)]GlcNAc(b1-3)Gal(b1-4)GlcNAc
# Summary of the method: as §1
# [7] = biological target: Neu5Ac(a2-3)Gal(b1-4)[Fuc(a1-3)]GlcNAc(b1-3)Gal(b1-4)[Fuc(a1-3)]GlcNAc(b1-3)Gal(b1-4)[Fuc(a1-3)]GlcNAc
# Summary of the method: as §1
# [8] = biological target: Neu5Ac(a2-3)Gal(b1-4)[Fuc(a1-3)]GlcNAc6S
# Summary of the method: as §1
# [9] = biological target: Neu5Ac(a2-3)Gal6S(b1-4)GlcNAc
# Summary of the method: as §1
# Neu5Ac(a2-3)GalNAc = biological target: Neu5Ac(a2-3)GalNAc
# Summary of the method: as §1
# [10] = biological target: Neu5Ac(a2-3)[GalNAc(b1-4)]Gal(b1-4)Glc
# Summary of the method: as §1
# [11] = biological target: Neu5Ac(a2-3)[GalNAc(b1-4)]Gal(b1-4)GlcNAc
# Summary of the method: as §1
# [12] = biological target: Neu5Ac(a2-3)[Neu5Ac(a2-6)]GalNAc
# Summary of the method: as §1
# Neu5Ac(a2-6)Gal = biological target: Neu5Ac(a2-6)Gal
# Summary of the method: as §1
# Neu5Ac(a2-6)Gal(b1-4)Glc = biological target: Neu5Ac(a2-6)Gal(b1-4)Glc
# Summary of the method: as §1
# [13] = biological target: Neu5Ac(a2-6)Gal(b1-4)GlcNAc
# Summary of the method: as §1
# [14] = biological target: Neu5Ac(a2-6)Gal(b1-4)GlcNAc(b1-3)Gal(b1-4)GlcNAc
# Summary of the method: as §1
# [15] = biological target: Neu5Ac(a2-6)Gal(b1-4)GlcNAc(b1-3)Gal(b1-4)[Fuc(a1-3)]GlcNAc(b1-3)Gal(b1-4)[Fuc(a1-3)]GlcNAc
# Summary of the method: as §1
# [16] = biological target: Neu5Ac(a2-6)Gal(b1-4)GlcNAc6S
# Summary of the method: as §1
# Neu5Ac(a2-6)GalNAc = biological target: Neu5Ac(a2-6)GalNAc
# Summary of the method: as §1
# Neu5Ac(a2-8)Neu5Ac = biological target: Neu5Ac(a2-8)Neu5Ac
# Summary of the method: as §1
# [17] = biological target: Neu5Ac(a2-8)Neu5Ac(a2-3)Gal(b1-4)Glc
# Summary of the method: as §1
# [18] = biological target: Neu5Ac(a2-8)Neu5Ac(a2-3)[GalNAc(b1-4)]Gal(b1-4)Glc
# Summary of the method: as §1
# [19] = biological target: Neu5Ac(a2-8)Neu5Ac(a2-8)Neu5Ac
# Summary of the method: as §1
# [20] = biological target: Neu5Ac(a2-8)Neu5Ac(a2-8)Neu5Ac(a2-3)Gal(b1-4)Glc
# Summary of the method: as §1
# [21] = biological target: Neu5Ac(a2-8)Neu5Ac(a2-8)Neu5Ac(a2-3)[GalNAc(b1-4)]Gal(b1-4)Glc
# Summary of the method: as §1
# Neu5Ac(b1-6)GalNAc = biological target: Neu5Ac(b1-6)GalNAc
# Summary of the method: as §1
# [22] = biological target: Neu5Ac(b2-6)Gal(b1-4)GlcNAc
# Summary of the method: as §1
# [23] = biological target: Neu5Ac9Ac(a2-6)Gal(b1-4)GlcNAc
# Summary of the method: as §1
# [24] = biological target: Neu5Gc(a2-3)Gal(b1-3)GlcNAc
# Summary of the method: as §1
# [25] = biological target: Neu5Gc(a2-3)Gal(b1-3)[Fuc(a1-4)]GlcNAc
# Summary of the method: as §1
# Neu5Gc(a2-3)Gal(b1-4)Glc = biological target: Neu5Gc(a2-3)Gal(b1-4)Glc
# Summary of the method: as §1
# [26] = biological target: Neu5Gc(a2-3)Gal(b1-4)GlcNAc
# Summary of the method: as §1
# [27] = biological target: Neu5Gc(a2-3)Gal(b1-4)[Fuc(a1-3)]GlcNAc
# Summary of the method: as §1
# [28] = biological target: Neu5Gc(a2-6)Gal(b1-4)GlcNAc
# Summary of the method: as §1
# Neu5Gc(a2-6)GalNAc = biological target: Neu5Gc(a2-6)GalNAc
# Summary of the method: as §1
binder,measurement,setting,value
B1,glycan array binding signal (z-score),[1],-0.231
same,glycan array binding signal (z-score),[2],-0.141
same,glycan array binding signal (z-score),[3],-0.229
same,glycan array binding signal (z-score),[4],-0.229
same,glycan array binding signal (z-score),[5],-0.239
same,glycan array binding signal (z-score),[6],-0.195
same,glycan array binding signal (z-score),[7],-0.231
same,glycan array binding signal (z-score),[8],-0.226
same,glycan array binding signal (z-score),[9],-0.226
same,glycan array binding signal (z-score),Neu5Ac(a2-3)GalNAc,0.111
same,glycan array binding signal (z-score),[10],-0.218
same,glycan array binding signal (z-score),[11],-0.217
same,glycan array binding signal (z-score),[12],-0.197
same,glycan array binding signal (z-score),Neu5Ac(a2-6)Gal,-0.199
same,glycan array binding signal (z-score),Neu5Ac(a2-6)Gal(b1-4)Glc,-0.208
same,glycan array binding signal (z-score),[13],-0.233
same,glycan array binding signal (z-score),[14],-0.161
same,glycan array binding signal (z-score),[15],-0.206
same,glycan array binding signal (z-score),[16],-0.197
same,glycan array binding signal (z-score),Neu5Ac(a2-6)GalNAc,0.442
same,glycan array binding signal (z-score),Neu5Ac(a2-8)Neu5Ac,-0.158
same,glycan array binding signal (z-score),[17],-0.238
same,glycan array binding signal (z-score),[18],-0.22
same,glycan array binding signal (z-score),[19],-0.248
same,glycan array binding signal (z-score),[20],-0.232
same,glycan array binding signal (z-score),[21],-0.239
same,glycan array binding signal (z-score),Neu5Ac(b1-6)GalNAc,-0.218
same,glycan array binding signal (z-score),[22],-0.263
same,glycan array binding signal (z-score),[23],0.325
same,glycan array binding signal (z-score),[24],-0.177
same,glycan array binding signal (z-score),[25],-0.265
same,glycan array binding signal (z-score),Neu5Gc(a2-3)Gal(b1-4)Glc,0.109
same,glycan array binding signal (z-score),[26],-0.201
same,glycan array binding signal (z-score),[27],-0.216
same,glycan array binding signal (z-score),[28],0.244
same,glycan array binding signal (z-score),Neu5Gc(a2-6)GalNAc,-0.24

# From the supplement of paper PMC8728848
